Experimental data taken from the BET-seq Pho4 binding data (Le et al. 2018).
Some of the results follow. These are noisy estimates, calculated here from bound and input reads.

molecular target: T1, Pho4 (S. cerevisiae) (UniProt P07270); assay: relative binding free energy (BET-seq); higher = weaker binding; settings: reference: library average
T1 sequence: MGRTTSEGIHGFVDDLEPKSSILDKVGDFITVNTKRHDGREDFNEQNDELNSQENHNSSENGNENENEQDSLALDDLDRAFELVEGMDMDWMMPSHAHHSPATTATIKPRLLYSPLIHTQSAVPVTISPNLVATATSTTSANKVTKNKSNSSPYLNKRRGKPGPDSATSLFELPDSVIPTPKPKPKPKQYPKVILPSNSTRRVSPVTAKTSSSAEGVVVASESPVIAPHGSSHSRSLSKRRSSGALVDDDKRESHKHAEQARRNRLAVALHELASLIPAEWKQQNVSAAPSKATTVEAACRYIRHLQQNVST

Row | Sequence | relative binding free energy
1 | TGGCGCACGTGGTTTG | -0.1 kcal/mol
2 | GCACTCACGTGGGGGG | -0.02 kcal/mol
3 | TAGTCCACGTGGTGGG | 0 kcal/mol
4 | TGTAACACGTGGCGTA | -0.13 kcal/mol
5 | TAGGACACGTGAGAGG | 0.35 kcal/mol
6 | TGTGGCACGTGTCGTC | -0.13 kcal/mol
7 | CTGCACACGTGGGTGG | -0.15 kcal/mol
8 | TGTATCACGTGGGCCG | -0.08 kcal/mol
9 | TAAAGCACGTGCATGG | -0.12 kcal/mol
10 | AATCGCACGTGGGGTA | -0.19 kcal/mol
11 | TTTGCCACGTGTGGAT | -0.02 kcal/mol
12 | TGGAACACGTGTGGGA | 0.05 kcal/mol
13 | CAATTCACGTGTGAGG | 0.26 kcal/mol
14 | GTCAGCACGTGATTTT | 0.23 kcal/mol
15 | GCGGACACGTGAGGGG | 0.31 kcal/mol
16 | GTGGTCACGTGCCGTT | 0.1 kcal/mol
17 | GTCTTCACGTGGTAAG | 0.31 kcal/mol
18 | CGGATCACGTGGGGGC | 0.07 kcal/mol
19 | ATTTACACGTGAGTGC | 0.31 kcal/mol
20 | ATATTCACGTGAAGGC | 0.46 kcal/mol
21 | GTGTGCACGTGAAGTC | 0.27 kcal/mol
22 | TTGGACACGTGTTTGG | 0.04 kcal/mol
23 | AGGGGCACGTGCTTGG | -0.15 kcal/mol

Row | Sequence | relative binding free energy
24 | TCGGGCACGTGTAAAT | 0.17 kcal/mol
25 | AGTATCACGTGGTACT | 0.04 kcal/mol
26 | GTCGTCACGTGATTTA | 0.25 kcal/mol
27 | TTACGCACGTGGAGGG | -0.23 kcal/mol
28 | CTTAGCACGTGGGTCG | -0.17 kcal/mol
29 | ATTGACACGTGGGAAA | -0.03 kcal/mol
30 | GTGTACACGTGTGGCA | 0.09 kcal/mol
31 | TGCAACACGTGGGAGG | -0.14 kcal/mol
32 | TCTTGCACGTGTGTCT | -0.11 kcal/mol
33 | ATAACCACGTGAGGTT | 0.35 kcal/mol
34 | TGCTTCACGTGTTTAA | 0.22 kcal/mol
35 | CTGCACACGTGGTGGG | -0.16 kcal/mol
36 | AGGGACACGTGTCGGG | -0.04 kcal/mol
37 | GTTGGCACGTGTGTGG | 0.06 kcal/mol
38 | TAGGACACGTGTAGAT | 0.19 kcal/mol
39 | AGGCACACGTGCGGGT | -0.08 kcal/mol
40 | AAAGGCACGTGGCGTA | -0.27 kcal/mol
41 | CGCGTCACGTGGTGGT | 0.03 kcal/mol
42 | GTGCACACGTGATGAG | 0.34 kcal/mol
43 | GGGGCCACGTGTTGGA | 0.07 kcal/mol
44 | GGAATCACGTGTGGGC | 0.14 kcal/mol
45 | AGTTCCACGTGGCGTT | 0.01 kcal/mol
46 | TGTTGCACGTGCGGGG | -0.04 kcal/mol

Row | Sequence | relative binding free energy
47 | GTGCTCACGTGGGGCG | -0.05 kcal/mol
48 | CGAATCACGTGTTAGT | 0.18 kcal/mol
49 | AAAGCCACGTGTGGTT | 0 kcal/mol
50 | AATTTCACGTGGGTTA | 0.18 kcal/mol
51 | GTGTTCACGTGAGTAA | 0.42 kcal/mol
52 | TGGAGCACGTGGTGGG | -0.08 kcal/mol
53 | GTTTGCACGTGGAGTC | -0.07 kcal/mol
54 | TGTCGCACGTGTCAGG | -0.02 kcal/mol
55 | ATATTCACGTGAGTGC | 0.34 kcal/mol
56 | CTGGTCACGTGTAGCG | 0.06 kcal/mol
57 | GGTGGCACGTGTTTGA | -0.06 kcal/mol
58 | AGTCGCACGTGGAGAG | 0 kcal/mol
59 | CTTTTCACGTGAGTGA | 0.24 kcal/mol
60 | GAAACCACGTGGTGGG | -0.03 kcal/mol
61 | TAATTCACGTGGTGTC | 0.2 kcal/mol
62 | CTGGGCACGTGAGTTG | 0.12 kcal/mol
63 | TGGTGCACGTGTTAGG | -0.08 kcal/mol
64 | GATGGCACGTGTGTTC | 0.11 kcal/mol
65 | TGGTTCACGTGCTCTG | 0.37 kcal/mol
66 | AAATTCACGTGGGTGA | 0.02 kcal/mol
67 | TAAATCACGTGATCGG | 0.29 kcal/mol
68 | TACTGCACGTGTGTAT | 0.17 kcal/mol
69 | ATAATCACGTGGGGCG | -0.01 kcal/mol

Row | Sequence | relative binding free energy
70 | TCTTTCACGTGGGGGG | 0.15 kcal/mol
71 | GTGGGCACGTGCTCTT | -0.15 kcal/mol
72 | CTAGGCACGTGTCGGT | 0.04 kcal/mol
73 | TATGGCACGTGTGTCG | -0.02 kcal/mol
74 | TGTAGCACGTGGGTCT | -0.26 kcal/mol
75 | TCGGACACGTGGGGTG | -0.03 kcal/mol
76 | GAGGTCACGTGGTTGG | 0.18 kcal/mol
77 | GGTCACACGTGCGTTG | 0.03 kcal/mol
78 | GAGGTCACGTGTTAAT | 0.18 kcal/mol
79 | GTGTGCACGTGCGGGA | -0.06 kcal/mol
80 | AAGGTCACGTGGGAGA | -0.02 kcal/mol
81 | TGTTCCACGTGATTTA | 0.22 kcal/mol
82 | ATGGTCACGTGTAGAA | 0.21 kcal/mol
83 | ATTATCACGTGAGGCT | 0.25 kcal/mol
84 | TCTTACACGTGATAGT | 0.32 kcal/mol
85 | AGGATCACGTGTTTAG | 0.1 kcal/mol
86 | GGCGTCACGTGTGAGC | 0.24 kcal/mol
87 | TGTCTCACGTGAGTGT | 0.22 kcal/mol
88 | GTAGACACGTGTGGTG | 0.04 kcal/mol
89 | TATTTCACGTGAGTCG | 0.41 kcal/mol
90 | GGGCACACGTGGCTGT | 0 kcal/mol
91 | GGGGACACGTGAATAG | 0.42 kcal/mol
92 | TAATGCACGTGATGGT | 0 kcal/mol

Row | Sequence | relative binding free energy
93 | GTTTTCACGTGGGGTA | 0.18 kcal/mol
94 | AATATCACGTGGGGAA | -0.1 kcal/mol
95 | AAGGGCACGTGCAGGG | -0.19 kcal/mol
96 | TAAAGCACGTGAGTGT | 0.14 kcal/mol
97 | TTGACCACGTGTGGGA | 0 kcal/mol
98 | GAGATCACGTGTTAAT | 0.25 kcal/mol
99 | GAAGCCACGTGGGTTA | -0.1 kcal/mol
100 | TATCACACGTGTTTTG | -0.02 kcal/mol
101 | TAGAACACGTGTGGAG | 0.06 kcal/mol
102 | TATCGCACGTGGGTGC | -0.25 kcal/mol
103 | AGGGTCACGTGGTATT | 0.12 kcal/mol
104 | TGTATCACGTGGGTAC | 0.11 kcal/mol
105 | AGAGGCACGTGTGGGT | 0.07 kcal/mol
106 | GGGGTCACGTGGGCGT | 0.03 kcal/mol
107 | AGTAACACGTGTTGAT | -0.08 kcal/mol
108 | CGCGTCACGTGGGGGT | -0.08 kcal/mol
109 | GTAAACACGTGAGGGT | 0.3 kcal/mol
110 | GTACGCACGTGAAGGG | 0.22 kcal/mol
111 | ATTAACACGTGTGAGG | 0.03 kcal/mol
112 | TGCAGCACGTGAGGAT | 0.13 kcal/mol
113 | AGTGACACGTGGTTTG | -0.03 kcal/mol
114 | GCGTACACGTGATAGG | 0.38 kcal/mol
115 | TATGGCACGTGGGGGC | -0.26 kcal/mol
